Data on 85 molecules can be found in article PMC4336329 (PLoS ONE, 2015).

Hit rate of the full screen: of about 310,000 compounds, about 14,000 (4.5%) showed an effect of 50% or more. The effect is printed as a negative number. The list shows a part of the results.
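Further: peak tail current of the secondary pulse compared with the same well before compound.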

human ether-à-go-go-related gene (hERG) potassium channel, sequence (Q12809 whole entry, looked up): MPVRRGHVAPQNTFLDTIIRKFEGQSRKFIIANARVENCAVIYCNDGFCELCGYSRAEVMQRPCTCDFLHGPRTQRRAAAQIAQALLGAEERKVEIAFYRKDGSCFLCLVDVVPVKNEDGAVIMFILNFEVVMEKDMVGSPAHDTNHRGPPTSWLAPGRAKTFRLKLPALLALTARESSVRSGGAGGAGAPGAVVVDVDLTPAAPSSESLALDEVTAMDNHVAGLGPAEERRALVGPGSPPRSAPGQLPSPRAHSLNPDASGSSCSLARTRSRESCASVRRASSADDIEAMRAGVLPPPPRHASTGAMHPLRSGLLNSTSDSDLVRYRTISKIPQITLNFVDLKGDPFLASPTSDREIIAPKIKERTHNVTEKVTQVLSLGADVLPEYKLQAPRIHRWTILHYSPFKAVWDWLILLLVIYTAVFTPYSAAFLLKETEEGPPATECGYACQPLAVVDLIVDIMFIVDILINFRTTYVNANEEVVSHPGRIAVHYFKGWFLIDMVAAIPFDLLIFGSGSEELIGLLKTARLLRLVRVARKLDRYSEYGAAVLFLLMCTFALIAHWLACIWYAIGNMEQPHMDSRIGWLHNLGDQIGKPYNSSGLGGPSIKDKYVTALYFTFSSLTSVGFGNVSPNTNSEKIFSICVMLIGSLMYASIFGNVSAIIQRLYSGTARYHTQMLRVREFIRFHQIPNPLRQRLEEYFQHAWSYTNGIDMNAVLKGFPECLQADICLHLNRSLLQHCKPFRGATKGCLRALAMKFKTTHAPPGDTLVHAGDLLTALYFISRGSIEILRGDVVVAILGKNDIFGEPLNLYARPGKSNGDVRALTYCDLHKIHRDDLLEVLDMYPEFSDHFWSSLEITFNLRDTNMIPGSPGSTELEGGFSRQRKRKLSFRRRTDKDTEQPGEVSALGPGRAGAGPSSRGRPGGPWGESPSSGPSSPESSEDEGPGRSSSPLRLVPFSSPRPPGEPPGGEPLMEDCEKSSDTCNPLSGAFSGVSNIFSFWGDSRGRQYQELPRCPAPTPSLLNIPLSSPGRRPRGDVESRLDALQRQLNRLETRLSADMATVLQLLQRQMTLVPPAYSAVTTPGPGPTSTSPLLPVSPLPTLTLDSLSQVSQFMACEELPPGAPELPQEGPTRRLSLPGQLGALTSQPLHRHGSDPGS

This assay concerns the target human ether-à-go-go-related gene (hERG) potassium channel (human, UniProt Q12809). Nature of the assay: primary screen, population patch clamp on CHO cells stably expressing hERG.
In the case of `Cc1ccc2nc(-c3ccccc3)cc(C(=O)N(C)CC(=O)Nc3ccccc3Br)c2c1`, the “hERG current change (%, negative = inhibition) at 10uM” value was -11%.

As to `Cc1cc(NC(=O)CSc2nnc(-c3c[nH]c4ccccc34)n2-c2ccc(Cl)cc2)no1`, the “hERG current change (%, negative = inhibition) at 10uM” value was 9.4%.

Consider `O=C(COC(=O)CCc1c[nH]c(=O)[nH]1)Nc1cccc(Cl)c1`, for which the “hERG current change (%, negative = inhibition) at 10uM” value is listed as -3.29%. Take `CCn1c(=O)c2cc(C(=O)NCCN3CCOCC3)sc2c2ccccc21`: the “hERG current change (%, negative = inhibition) at 10uM” value is listed as 0.389%.

For `COc1ccc(Cl)cc1NC(=O)Nc1ccc(C(=O)N2CCCC2)cc1`, the “hERG current change (%, negative = inhibition) at 10uM” value was -6.41%. For the molecule `CCOC(=O)c1c(CN2CCOCC2)n(C)c2cc(Br)c(O)c(CN(C)C)c12.Cl`, the “hERG current change (%, negative = inhibition) at 10uM” value is given as -26.6%. For `CCCOc1cccc(C(=O)N2CCN(C(=O)C3CCCO3)CC2)c1` (stereo not shown), the “hERG current change (%, negative = inhibition) at 10uM” value was 7.15%. In the case of `Cc1ccc(NC(=O)c2ccc(S(=O)(=O)NCc3ccco3)cc2)cc1` it was 8.38%; in that of `CCC1CCCCN1C(=O)CCn1ccnc1` (stereo not shown), 39.8%. In the case of `Nc1c(C(=O)CSc2nccn2-c2cccc(F)c2)c(=O)[nH]c(=O)n1C1CC1`, the “hERG current change (%, negative = inhibition) at 10uM” value is given as 10.2%. As to `O=C(COC(=O)CNC(=O)c1ccccc1)NC1CCCCC1`, the “hERG current change (%, negative = inhibition) at 10uM” value is -3.32%. Under `COc1ccc(N2CCN(c3ccc(NC(=O)C4CCCCC4)cc3C#N)CC2)cc1` stands 15.2%; under `CCn1c(SCC(=O)c2ccc(C)cc2)nnc1-c1ccncc1`, 10.7%.

For the molecule `Cc1ccc2c(c1)[C@@H]1CN(C)CC[C@@H]1N2S(=O)(=O)c1ccc(F)cc1.Cl`, the “hERG current change (%, negative = inhibition) at 10uM” value was -29.1%.

`CC1Cc2ccccc2N1C(=O)CSc1nnc2c(n1)[nH]c1ccccc12` (stereo not shown): the “hERG current change (%, negative = inhibition) at 10uM” value is reported as 4.82%. Regarding `C=Cn1ccnc1P(=S)(c1c(C)nn(-c2ccccc2)c1C)c1nccn1C=C`, the “hERG current change (%, negative = inhibition) at 10uM” value was -0.536%.

Take `CN(CC(=O)Nc1ccccc1Cl)C(=O)COC(=O)c1cc([N+](=O)[O-])ccc1N1CCOCC1`: the “hERG current change (%, negative = inhibition) at 10uM” value was -44.4%. In the case of `Cc1ccc(-n2nc(C(=O)NCc3ccco3)c3c4ccccc4n(C)c3c2=O)cc1`, the “hERG current change (%, negative = inhibition) at 10uM” value was found to be 10.4%. Under `O=C(O)C(Cc1ccccc1)N1C(=O)/C(=C/c2cccc3ccccc23)SC1=S` (stereo not shown) stands 15.1%; under `Cc1cc(NS(=O)(=O)c2ccc(NC(=O)c3cc4ccccc4o3)cc2)nc(C)n1`, -0.991%. Take `CC(C)NC(=O)c1ccccc1-c1nc(-c2ccccc2Cl)no1`: the “hERG current change (%, negative = inhibition) at 10uM” value is -5.34%. In the case of `O=C(CSc1nnnn1-c1ccc2c(c1)CCC2)Nc1ccc2c(c1)OCCO2` it was -2.13%; in that of `COc1ccc(C2CC(c3ccccc3)=NN2C(=O)COC(=O)COc2ccccc2)cc1` (stereo not shown), 9.4%. On to `CC(Nc1ccc(N2CCOCC2)cc1)C(=O)N1c2ccccc2CC1C` (stereo not shown), for which the “hERG current change (%, negative = inhibition) at 10uM” value worked out at 4.02%. Under `Cc1cc(NC(=O)c2c(F)cccc2Cl)n(-c2nc3ccccc3[nH]2)n1` stands -0.633%; under `N#Cc1c(N)nc(SCC(=O)OCc2ccccc2)c(C#N)c1-c1ccco1`, -20.8%.

On to `O/C(=C\Sc1nnc(Cc2ccccc2)o1)c1ccc(F)cc1`, for which the “hERG current change (%, negative = inhibition) at 10uM” value is -5.33%. In the case of `CCOC(=O)c1sc(NC(=O)CN2C(=O)NC3(CC(C)CC(C)(C)C3)C2=O)cc1C` (stereo not shown) it was 6.49%; in that of `O=C(N/N=C/c1cccnc1)c1cccc(NC(=O)c2ccccc2Cl)c1`, 21.5%; in that of `O=C(NC(Cc1c[nH]c2ccccc12)C(=O)Nc1ccc(OC(F)(F)F)cc1)c1cccs1` (stereo not shown), -10.7%. For the molecule `CC1(C)OC(=O)C(=Cc2ccc(-c3ccc(S(N)(=O)=O)cc3)o2)C(=O)O1`, the “hERG current change (%, negative = inhibition) at 10uM” value was 13.6%. In the case of `Cc1nc2cccc(C(=O)NC3CCCCC3)c2o1` it was 8.8%. For the molecule `Cc1ccc(C)c(N(CC(=O)NCc2ccco2)C(=O)CNS(=O)(=O)c2ccccc2)c1`, the “hERG current change (%, negative = inhibition) at 10uM” value amounted to 4.84%. `Cc1cc(C)n(CCNC(=O)CC2C(=O)NCCN2Cc2ccc(C)o2)n1` (stereo not shown): the “hERG current change (%, negative = inhibition) at 10uM” value stood at 12.6%. In the case of `CC(C)OC(=O)NC(C)(C)COC(=O)Nc1cccc(Cl)c1` it was -3.14%; in that of `NC(=O)c1cc(N2C(=O)C3CC=CCC3C2=O)ccc1N1CCCCC1` (stereo not shown), -22.2%; in that of `O=C(c1ccc(N2CCCC2=O)cc1)N1CCOCC1`, 15.5%.

Regarding `CCOc1ccc2c(c1)[nH]c(=S)n2C`, the “hERG current change (%, negative = inhibition) at 10uM” value was 4.86%. Under `O=C(NCc1ccco1)C(=O)NCC1OCCN1S(=O)(=O)c1ccc(F)cc1` (stereo not shown) stands -2.51%. In the case of `O=C(N1CCOCC1)N1CCCC(c2nc(-c3cccs3)no2)C1` (stereo not shown) it was -8.73%. Take `Cc1ccc(-n2nnc3c(SCC(=O)NCC4CCCO4)ncnc32)cc1` (stereo not shown): the “hERG current change (%, negative = inhibition) at 10uM” value was -13.1%. Regarding `Cc1ccc(C(=O)NCC(=O)OCC(=O)c2ccc(Br)s2)cc1`, the “hERG current change (%, negative = inhibition) at 10uM” value is on record as 12.9%. Regarding `O=C(Nc1ccccc1Cl)c1ccc(S(=O)(=O)N2CCOCC2)cc1`, the “hERG current change (%, negative = inhibition) at 10uM” value is recorded as 3.26%.

Consider `CC(C#N)Sc1ncnc2sc3c(c12)CCC3` (stereo not shown), for which the “hERG current change (%, negative = inhibition) at 10uM” value was 0.835%.

`CC1CCN(C(=O)COC(=O)[C@H](C)NS(=O)(=O)/C=C/c2ccccc2)CC1`: the “hERG current change (%, negative = inhibition) at 10uM” value is reported as -6.14%. For `CCOc1cccc2cc(C(=O)Nc3cc(C)on3)c(=O)oc12`, the “hERG current change (%, negative = inhibition) at 10uM” value was -7.3%. In the case of `COc1cc(C(=O)O/N=C2\C=CC(=O)C(C)=C2)cc(OC)c1OC`, the “hERG current change (%, negative = inhibition) at 10uM” value amounted to 5.24%. As for `O=C(O)c1ccc(CSCc2ccco2)cc1`, the “hERG current change (%, negative = inhibition) at 10uM” value is on record as 20.6%. Under `Cc1cc(C)c2c(N)c(C(=O)c3ccccc3)sc2n1` stands 8.02%.

For the molecule `CN1c2ccccc2C(C)(C)C12CC(CCl)=NO2` (stereo not shown), the “hERG current change (%, negative = inhibition) at 10uM” value worked out at 11%.

With `O=C(CCN(NC(=O)c1ccccc1)C1=NS(=O)(=O)c2ccccc21)NC1CCCCC1`, the “hERG current change (%, negative = inhibition) at 10uM” value is given as -4.51%. In the case of `CS(=O)(=O)N(CC(=O)Nc1ccc2c(c1)OCO2)Cc1ccccc1` it was 10.6%. In the case of `CC(=O)Nc1ccc(NS(=O)(=O)c2cccc3ccccc23)cc1` it was -0.467%; in that of `COc1ccc(CNC(=O)c2cc(-c3cc(C)cc(C)c3O)n[nH]2)cc1`, 13.3%; in that of `Cc1cc(C)cc(N2CC34C=CC(O3)C(C(=O)OCC(=O)NCc3ccco3)C4C2=O)c1` (stereo not shown), -19%.

For `Cc1cc(C(F)(F)F)nn1CC(=O)Nc1ccc2c(c1)OCO2`, the “hERG current change (%, negative = inhibition) at 10uM” value is -2.91%.

As to `COc1ccc(CCn2nnnc2C(c2ccc(C)cc2)N2CCN(C)CC2)cc1OC.Cl` (stereo not shown), the “hERG current change (%, negative = inhibition) at 10uM” value is -15.4%. With `O=[N+]([O-])c1nn(-c2ccc(Cl)cc2)n(O)c1=NCc1ccncc1`, the “hERG current change (%, negative = inhibition) at 10uM” value is reported as -39.8%.

As to `CC(=O)c1c(C)[nH]c(C(=O)Nc2cccc(S(=O)(=O)N(C)C)c2)c1C`, the “hERG current change (%, negative = inhibition) at 10uM” value was 8.5%. Under `Cc1cc(C)c(-n2nnnc2SCC(=O)c2cc3ccccc3o2)c(C)c1` stands 11.4%; under `O=c1ccc(-c2ccccc2)nn1Cc1ccccc1F`, 0.202%; under `COc1ccc(-n2c(CNc3ccc(C)cc3)nnc2SCc2ccccc2)cc1`, -7.09%.

As for `COc1ccc(CNC(=O)CN(Cc2ccccc2)C(=O)CCC(=O)Nc2ccccn2)cc1`, the “hERG current change (%, negative = inhibition) at 10uM” value is given as -55.9%. Under `O=C(/C=C/c1ccccc1)NC(=S)Nc1cccnc1` stands 9.58%.

Consider `CCC(C)[C@H](NC(=O)[C@H](Cc1ccccc1)n1c(=O)[nH]c2ccccc2c1=O)C(=O)N1CCC(C(=O)O)CC1` (stereo partly shown), for which the “hERG current change (%, negative = inhibition) at 10uM” value was -7.09%.

On to `CCCCn1c(SC(C)C(=O)c2ccc(OC)cc2)nc2cc(S(N)(=O)=O)ccc21` (stereo not shown), for which the “hERG current change (%, negative = inhibition) at 10uM” value is reported as -18.1%.

Take `CN1Cc2c(N3CCOCC3)nc3sc(C(=O)c4ccc(Br)cc4)c(N)c3c2CC1(C)C`: the “hERG current change (%, negative = inhibition) at 10uM” value amounted to 0.508%.

As for `O=C(N/N=C/c1ccccn1)C(O)c1ccccc1` (stereo not shown), the “hERG current change (%, negative = inhibition) at 10uM” value came to 9.82%. `COc1ccc(C(=O)COc2nc(C)cc(C)c2C#N)cc1`: the “hERG current change (%, negative = inhibition) at 10uM” value is reported as -18.7%. In the case of `Cc1ccc(Sc2ccc(NC(=O)CCl)cc2)c(C)c1` it was 12.5%; in that of `O=C(COc1c(Br)cc(Br)c2cccnc12)N1CCc2ccccc2C1`, 8.07%. With `O=C(N1CCN(c2ccccc2)CC1)C1(c2cccs2)CCOCC1`, the “hERG current change (%, negative = inhibition) at 10uM” value was 13.6%. Under `COc1ccc(NS(=O)(=O)c2cccc(Cl)c2Cl)cc1S(=O)(=O)N1CCCCC1` stands -28.3%.

As to `Cc1cccc(C)c1NC(=O)CNC(=O)CN1C(=O)NC2(CCc3ccccc32)C1=O` (stereo not shown), the “hERG current change (%, negative = inhibition) at 10uM” value turned out to be 1.69%. In the case of `CCN(CC)S(=O)(=O)c1ccc(C(=O)/C=C/c2ccc(-c3ccc([N+](=O)[O-])cc3)o2)cc1` it was -7.72%. Under `Cc1scc(C(=O)N/N=C/c2ccco2)c1C` stands 2.52%. For the molecule `O=C(NNS(=O)(=O)c1ccccc1)c1ccc(S(=O)(=O)N2CCCCC2)cc1`, the “hERG current change (%, negative = inhibition) at 10uM” value is -19.3%.

For the molecule `Cc1ccccc1-n1ncc2c(SCC(=O)NCc3cccs3)ncnc21`, the “hERG current change (%, negative = inhibition) at 10uM” value amounted to 8.79%. Under `CCOc1ccc(-c2c(C(=O)N/N=C/c3ccco3)nnn2-c2nonc2N)cc1` stands 14.9%. In the case of `COc1ccc(OC)c(NC(=O)CN2C(=O)COc3ccc(C)cc32)c1` it was 4.02%; in that of `CCOC(=O)C1CCCCN1Cc1cccc(F)c1` (stereo not shown), 7.98%. Under `C=CCc1ccc(OCCOCCNCCOC)c(OC)c1` stands -22.9%; under `N#Cc1nc(-c2ccc([N+](=O)[O-])cc2)oc1N1CCCCC1`, 14.5%; under `NC(=O)c1ccccc1NC(=O)c1ccc2c(c1)OCO2`, 5.14%. In the case of `O=C(Cn1nc(C(F)(F)F)c2c1CCC2)NCc1ccc(F)cc1`, the “hERG current change (%, negative = inhibition) at 10uM” value is listed as 6.92%.
